Measured values: PubChem BioAssay (NCI)
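Briefly, cells in 96-well plates were exposed to five compound concentrations for 48 h, and endpoints were estimated by linear interpolation. GI50: concentration for 50% inhibition of growth. The concentration for full growth arrest is given as TGI.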

test system: NCI-H322M lung; test: NCI-60 cell line screen, 48 h

Structure (SMILES)	TGI	GI50
CC1(C)SCc2nc3ccccc3n21	> 100 µM	–
COc1ccc2c(c1)-c1nc(=O)n(CCCN(C)C)c3ccc([N+](=O)[O-])c(c13)N2	11.9 µM	–
COc1cc(C2C(C(=O)O)=C(COC(C)=O)Oc3cc4c(cc32)OCO4)cc(OC)c1OC(C)=O (stereo not drawn)	> 100 µM	–
O=C1CCCCC1C(O)(C(F)(F)F)C(F)(F)Cl (stereo not drawn)	> 10 µM	–
O=C(O)c1ccc(C(=O)O)c(C(=O)O)c1.[NH-]C1CCCCC1[NH-].[Pt+2]	> 96.5 µM	18 µM
C=C(CN1CCN(c2ccccc2C(F)(F)F)CC1)c1ccc(C(=O)Nc2ccccc2N)cc1	> 89.1 µM	11.4 µM
NC(=N\N=C/c1ccc(Cl)cc1Cl)/C(N)=N\N=C/c1ccc(Cl)cc1Cl	> 90.6 µM	6.24 µM
COC(=O)c1nc(C(=O)OC)c2c([nH]c3ccccc32)c1C(=O)OC	> 100 µM	–
O=C(Cc1ccccc1)NN1C(=O)C(Cl)C1c1cccc([N+](=O)[O-])c1 (stereo not drawn)	> 100 µM	–
NC1=NC2=C(CCCC2)C(c2cccs2)S1 (stereo not drawn)	> 100 µM	–
O=C1C=CC(=O)N1c1ccc(I)cc1	36.9 µM	–
CC(C)OC(=O)NNc1cccc(Cl)c1	> 100 µM	–
CCc1cccc(CC)c1NC(=O)CC1SC(N)=NC1=O (stereo not drawn)	> 100 µM	–
O=C(O)c1cn(C2CC2)c2cc(N3CCN(C(=O)Nc4nc(-c5ccc(Br)cc5)cs4)CC3)c(F)cc2c1=O	> 100 µM	2.92 µM
COC(=O)[C@H](COC(C)(C)C)NC(=O)N[C@H](C)c1ccccc1	> 100 µM	–
Cc1cccc2c1c(=O)c1c(O)cc3c(c1n2C)C=CC(C)(C)O3	> 100 µM	–
CCOC(=O)C1(C#N)C(C#N)(C#N)C1(C#N)C#N	> 100 µM	–
COc1ccc(NS(=O)c2c(C)cc(C)cc2C)cc1 (stereo not drawn)	> 100 µM	–
N#Cc1c2ccccc2c2nnc3ccc(C(F)(F)F)cc3n12	> 100 µM	40.9 µM
Fc1cccc(C2SCc3nc4cc5ccccc5cc4n32)c1 (stereo not drawn)	> 100 µM	–
O=C(NS(=O)(=O)c1ccc(NC[C@H]2COCCO2)c([N+](=O)[O-])c1)c1ccc(N2CCN(CC3=C(c4ccc(Cl)cc4)CC4(CCC4)CC3)CC2)cc1Oc1cnc2[nH]ccc2c1	6.06 µM	2.03 µM
CCCOc1ccc(/C=N/Nc2cc(C)nc3ccc(Cl)cc23)cc1	3.06 µM	1.69 µM
CC1=NC=C(O)c2ccccc2O1	> 100 µM	–
FC(F)(F)c1ccc(-c2ncc(-c3ccc(C(F)(F)F)cc3)c(NCc3cc(C(F)(F)F)cc(C(F)(F)F)c3)n2)cc1	65.5 µM	5.16 µM

Structure (SMILES)	TGI	GI50
CCN(CC)C(=S)N/N=C/c1cc(OC)ccc1O	> 100 µM	–
Cn1c2cc([N+](=O)[O-])ccc2c(=O)c2c(O)cc3c(c21)C=CC(C)(C)O3	> 100 µM	–
CC(C)OCc1cc(CN2CCN(c3cccc(Cl)c3)CC2)c(O)c2ncccc12	15 µM	0.465 µM
CCCCCCCc1cscc1-c1cscc1Br	> 100 µM	–
CN(C)CC1CCCCCCCCCCCCC(CN(C)C)C1=O (stereo not drawn)	28.6 µM	–
COc1cc(/C=C/C(=O)c2c(C)nc3ccccc3c2C)ccc1OCCCCOc1cc2c(cc1OC)C(=O)N1CCC[C@H]1C=N2	2.75 µM	1 µM
OCC1OC(n2cnc3c(SCc4ccccc4)ncnc32)C(O)C1O (stereo not drawn)	> 100 µM	–
CN1CCN(c2ccc3[nH]c(C4=C(O)C(=O)[C@@H]5C(=C4O)N=C(CO)N5C)nc3n2)CC1	> 100 µM	–
CC(=O)N(CCN1C(=O)c2ccccc2C1=O)CCN1C(=O)c2ccccc2C1=O	> 100 µM	–
CC(=O)N=c1ccc2nc(N)nn(O)c-2c1	> 100 µM	–
CCCCCCCC(CC(=O)NC(CO)C(=O)NC(CO)CC(C)C)OC(=O)CC(CCCCCCC)OC(=O)CC(CCCCCCC)OC1OC(C)C(O)C(OC2OC(C)C(O)C(O)C2O)C1O (stereo not drawn)	25 µM	–
c1ccc2cc(CNCCCCNCCCNCc3ccc4ccccc4c3)ccc2c1	2.89 µM	–
O=C1Nc2ccccc2/C1=C\c1c(-c2ccccc2)nc2n1CCS2	58.9 µM	–
O=C(Nc1ccccc1)c1cccc([N+](=O)[O-])c1	> 100 µM	–
Cc1ccc(C(=O)N2CCCCC2)cc1N=NN(C)C	> 100 µM	–
Oc1ccc(Cc2ccc(O)c(C3CC(c4ccc(Cl)cc4)=NN3)c2)cc1C1CC(c2ccc(Cl)cc2)=NN1 (stereo not drawn)	> 100 µM	3.56 µM
O=c1nc2c(c(-c3ccc(F)cc3)[nH]1)COC/C2=C\c1ccc(F)cc1	> 100 µM	–
O=c1[nH]c(F)nc2c1ncn2C1OC(CO)C(O)C1O (stereo not drawn)	> 100 µM	> 100 µM
Cc1ccc(NC(=O)c2nc(S(C)(=O)=O)oc2-c2ccc(F)cc2)cc1Nc1ccc2ncn(C)c(=O)c2c1	17.3 µM	5.55 µM
O=C1Oc2cc3c(c4cccc1c24)OCN(c1ccccc1)C3	> 100 µM	–
CN(CSc1ccc(Cl)cc1)c1ccc(CSc2ccc(Cl)cc2)cc1	73.1 µM	7.16 µM
C/C(=N/NC(=S)N1CC2CCC(CC2)C1)c1cnccn1	9.36 µM	–
COc1ccc(C2CC(c3ccc4ccccc4c3)=NN2c2nc(O)c(C3=c4cc(OC)ccc4=NC3=O)s2)cc1 (stereo not drawn)	0.852 µM	0.0669 µM
C/C(=C\CNc1ncnc2c1ncn2CCC(=O)OC(C)(C)C)CO	> 100 µM	–
